± gives the standard deviation of the averaged measurements. Some of the results follow.
test system: PfAP2-LT AP2 domain (GST-tagged); assay: gcPBM binding intensity (ln(normalized median fluorescence intensity)); higher = stronger DNA binding
Outline: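 Alexa488 anti-GST antibody, scanned at 488 nm, detected GST-tagged P. falciparum DNA-binding domains that had been expressed in E. coli and incubated for 1 h on an Agilent 4 × 180k array. The array carried primer-extended double-stranded 36-bp intergenic genomic probes and negative controls. Binding intensity is the highest Masliner-normalised natural-log median intensity across replicate spots of either orientation of each probe.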

Sequence | gcPBM binding intensity (ln)
TAATACGAATGAGGCACACACCTAGTATACATGCTT [CACACA_site6438] | 9.09 ± 0.4
AATTAAAATTTTTGAAGTACACTCAAAATAAGTTAT [XGTACX_site4490] | 8.43 ± 0.46
CTTTTGAACAGTTCATGTACTCAATTTTTTAATAGT [XGTACX_site6498] | 8.61 ± 0.49
TAATACCTATGGTATAGTACGTATTATTTTATAGAG [XGTACX_site2078] | 8.58 ± 0.47
TTTTTTTTTTTGAAATGTACATTCCAAAAACTGATA [XGTACX_site1495] | 8.61 ± 0.5
TATATATATATATATTTTTTTTTTTTATGCACATGG [CACACA_negctrl_site1573] | 9.6 ± 0.17
TGTTAATTCTTAAGAATTTCCATAATTTCTTCTTTT [CACACA_negctrl_site1065] | 8.48 ± 0.4
TATTTATAAAAAAATACATGCATTTTTTTTTTTTTT [TGCATGCA_site65] | 8.36 ± 0.36
TAATACAAAAACAATGTTCTTTCAAACATAAACATA [CACACA_negctrl_site1628] | 8.57 ± 0.5
TTTGCCATATGACACACACACATGTAAACCCCCTTT [CACACA_site6873] | 9.76 ± 0.38
TATTTTTATTGGTACTGTACCTATTTAGAAATACAT [XGTACX_site6663] | 8.76 ± 0.55
ATGATTTCATTTGAGAGTACGTAAAAATAATACGTA [XGTACX_site4958] | 8.47 ± 0.38
TATAATGCTCTTCTTTGTACATATTATGATTATATT [XGTACX_site2332] | 8.89 ± 0.52
ATATATATATAATATAGTACGTATAATATATGAATC [XGTACX_site4385] | 9.12 ± 0.32
AAAGGAAAATGTGTAAAAAGAAATGCTAGGTATATA [GTGCAC_negctrl_site699] | 8.87 ± 0.46
ATATAAAAAAATAAAACACACACATATATATTATAT [CACACA_site8909] | 9.39 ± 0.23
ATTTAAGCATTATTTTGTACGAAAATAAAAAAATGA [XGTACX_site6958] | 8.47 ± 0.4
AGTGGTGTTAAATGTTGTACGATTTTGTGTTATTCG [XGTACX_site178] | 9.24 ± 0.19
TTTTTGTTATATAAAGTGCAGTGACAAGCAGTTTAA | 8.57 ± 0.43

Sequence | gcPBM binding intensity (ln)
ACTGCGTTTTTACACGCGCACTGCAATGAACAATAT | 8.75 ± 0.35
AAGATAATCACAAAATGTACAGGAAATATGACAACC [XGTACX_site3607] | 9.16 ± 0.3
TATGTAACAAAAAAAAGTACACATATATATAGTGTA [XGTACX_site7772] | 8.78 ± 0.49
AAGAAAAAGGAACGGAAAAACAAACAAGGGGCCCAA [TGCATGCA_negctrl_site4] | 8.96 ± 0.57
AATGGTATAAACAATACACACATAATATATATATTG [CACACA_site4997] | 9.14 ± 0.4
TTTTCTAAATTAATAATACACACTTGCTAAAATCAT [CACACA_site3207] | 8.47 ± 0.46
TTTTTTTAAATATACACACACATTTATACAGATATA [CACACA_site5811] | 9.03 ± 0.3
TTTCTAAAAATAAGAACACACACATATAAGCATATA [CACACA_site8714] | 9.11 ± 0.28
ATATCATTTTCTAGCACACACATTGTTATTACCTTG [CACACA_site902] | 9.45 ± 0.4
AGTCTGAATAAAATTACACACATATACAGATATATA [CACACA_site5054] | 9.03 ± 0.38
TATGTATAATTTCATTGTACTTTTGATATTATCATA [XGTACX_site280] | 8.69 ± 0.38
TATTAGAACATATATGCATGCAATAGATATTCCAAT [TGCATGCA_site297] | 8.87 ± 0.35
AAGGAATAGGCATATACACACAGGTACAGATATATA [CACACA_site4402] | 9.4 ± 0.43
TTTAAATATTACATATGTACTTATAAATATATATAT [XGTACX_site1284] | 8.88 ± 0.45
AAAAAAAAAATTGAAAGTACAAATATGTATTATATA [XGTACX_site2455] | 8.66 ± 0.61
TAATAGTATATAAAAAGTACATAATAAGATATGAAA [XGTACX_site1000] | 8.8 ± 0.54
ATTATGTGCCAATACACACACACATATATATATATA [CACACA_site468] | 10.38 ± 0.078
TAAAATATGTCATGTGGTACATGAATAGCTTTTATT [XGTACX_site3809] | 9.13 ± 0.54
AAAAAAAAAAAAAACACACAAATCATAAATAAATAT [CACACA_site6362] | 8.88 ± 0.49

Sequence | gcPBM binding intensity (ln)
TTTATGGAATAATCACGTACACACAAGAAAAAAAAA [XGTACX_site985] | 9.01 ± 0.45
TGTGTGTGCTTATTTTGTACATATTAGGTAAATATT [XGTACX_site6329] | 9.24 ± 0.27
TTTTTATCTAATCTAATATTATATTATACATATAAT [XGTACX_negctrl_site275] | 8.56 ± 0.55
AACTCATAAAATAATGGTACACAAAAAAAATAAATA [XGTACX_site7648] | 8.9 ± 0.5
CAAGGAACCAGACACACACACATAAATGTATTTATA [CACACA_site6491] | 9.54 ± 0.46
TTTTTTTTTTTCTTTTGTACGTATAAAATTATATAA [XGTACX_site2453] | 8.51 ± 0.48
TTAGATTTATAAGTGTGTACGTAAAATACTTAATAA [XGTACX_site8246] | 8.55 ± 0.47
TTAGGCAAGGCGGGGGGTACGTTTTTATATAATTAT [XGTACX_site8029] | 10.2 ± 0.14
TCATATAAATACACGTGTACATATATATATTACAGT [XGTACX_site1954] | 9.12 ± 0.37
AAAAAATATATATGCACACACAAAAAAACAAATTAA [CACACA_site1278] | 9.38 ± 0.43
AATATAAAAAATAGTTGTACTATATTTAAATATGAC [XGTACX_site2937] | 8.69 ± 0.43
AGTTTGCATATGGAAGTGCATTACCTTGAACATCAT | 8.82 ± 0.41
ACTAAACGAATAAATTGTACAAAGAAATATATTCAT [XGTACX_site6766] | 8.82 ± 0.45
CAACAAAAGTTATTTACACACAAAAGGCAAGGAAAT [CACACA_site7013] | 9.27 ± 0.42
ACTACGTGGATTAGTTCAAGGGAACACGTCCTATAC [CACACA_negctrl_site1427] | 8.87 ± 0.49
AAAGGAAATAAAAACGCACACAGAAATAATATCTAT [CACACA_site457] | 9.4 ± 0.47
TAAAAAATTACATATTGTACAGGCAAAATTACACAT [XGTACX_site1152] | 8.74 ± 0.45
ATATTTCATTTTTGTACACACAACGTTGGAGGGTTT [CACACA_site3043] | 9.19 ± 0.43
CCCACTAAAAAACACACACACACACCCATATATATA [CACACA_site6140] | 10.31 ± 0.078

Reference: the supplement of paper PMC11417369
